Assay results reported in PubChem BioAssay AID463173 (ICCB-Longwood Screening Facility, Harvard Medical School, 2010).
Screen size: about 52,000 compounds; about 1,700 (3.3%) were called active. No stated cut-off is given here; in the data, active means survival mostly below about 52% (no sharp cut-off); inactive means mostly above about 56%. This is one part of the list.

Each compound was assayed on Wild type (assay: growth inhibition of S. aureus wild type versus tarO mutant, primary screen, teichoic acid synthesis inhibitors, RN4220, OD600 (AID 463173)). Settings: S. aureus RN4220 wild type/DeltatarO growth, OD600, 18 h, stronger effect = lower value, screened at 18.75 µg/mL (by protocol).
With CCCc1cc(=O)[nH]c(Nc2cc(C)cc(C)c2)n1 the survival was inactive: 115%. Cc1c(C(=O)N(C)C)sc2c1c(=O)n(-c1ccc(Cl)c(Cl)c1)c(=O)n2CC(=O)N1CCCCC1C (stereo not given) was tested, and the survival was inactive: 65%. In the case of CCCC12CN3CC(CCC)(CN(C1)C3c1ccc(OC(C)C)cc1)C2=O (stereo not given), the survival is reported as inactive: 39%. For COc1cccc(Cn2c(C)c(CNC3CCCCC3)c(C(=O)O)c2C)c1, the survival was inactive: 88%. In the case of O=C(O)c1ccc(N=NSCCO)cc1, the survival is reported as inactive: 108%. For CCOc1ccc(NC(=O)CCCOc2cc(=O)n(C)c3ccccc23)cc1, the survival was inactive: 71%. In the case of Clc1ccccc1CSc1nnc(C2CCNCC2)o1, the survival is reported as inactive: 95%. COc1ccc(N2CCN(C(=O)CN3C(=O)COc4ccc(S(=O)(=O)N5CCC(C)CC5)cc43)CC2)cc1 was tested, and the survival was inactive: 76%. With O=C(CCn1nnc2ccccc21)N1CCC(O)(c2cccc(F)c2)CC1 the survival was inactive: 104%. With COc1ccc(N2CC(NC(=O)C3CCCCC3)CC2=O)cc1OC (stereo not given) the survival was inactive: 85%. For O=C(c1cnc2c(c1)COc1ccc(Cl)cc1-2)c1ccccc1O, the survival was inactive: 131%. With COc1ccc(NC(=O)c2oc3ccccc3c2NC(=O)Cc2coc3ccc(C)cc23)cc1 the survival was inactive: 85%. In the case of Cc1ccc2nc(-c3ccc(C)o3)c(Nc3ccc4c(c3)OCCO4)n2c1, the survival is reported as active: 19%. With CCS(=O)(=O)c1oc(-c2ccc(F)cc2)nc1S(=O)(=O)c1ccccc1 the survival was active: -1%. In the case of O=C(CSc1nc2ncccc2o1)Nc1cccc(C(F)(F)F)c1, the survival is reported as active: -3%. For Cc1ccc(S(=O)(=O)N2CCN(C(=O)c3c(C)nn(-c4ccccc4)c3Cl)CC2)cc1, the survival was inactive: 102%. For CCOc1cc(CNC(=O)c2ccc3nc(C(C)C)oc3c2)cc(OCC)c1OCC, the survival was inactive: 60%. In the case of COc1ccc(OC)c(CNC(=O)c2ccc3c(c2)c(C)c(C)n3C)c1, the survival is reported as inactive: 85%. With CCCCN(CC)C(=O)c1nn(-c2ccc(OC)cc2)c(=O)c2c1c1ccccc1n2C the survival was inactive: 90%. For Cc1ccc(C)c(N2CCN(C(=O)c3cc4c(=O)oc5ccccc5c4s3)CC2)c1, the survival was inactive: 76%. With O=C(Cn1c(=O)n(-c2ccccc2)c(=O)c2ccc(C(=O)NCc3ccc4c(c3)OCO4)cc21)Nc1ccc(Br)cc1 the survival was inactive: 74%. With Cc1nc(SCC(=O)Nc2nsc(-c3ccc(C(C)(C)C)cc3)n2)c2c3c(sc2n1)CCCC3 the survival was inactive: 92%. COc1ccc(N2CCN(S(=O)(=O)CCNC(=O)Cc3ccc(OC)c(OC)c3)CC2)cc1 was tested, and the survival was inactive: 69%. With CN(CCO)Cc1ccc2c(c1)OCO2 the survival was inactive: 121%. For CCN(C(=O)CSc1nc(-c2ccccc2)no1)c1ccccc1, the survival was inactive: 85%. With COc1ccc2c(c1)N(C)/C(=C1/SC(=Nc3ccc(C)cc3)N(C)C1=O)S2 the survival was inactive: 110%. For CC(=O)Nc1ccc(Nc2c3c(c(C#N)c4nc5ccccc5n24)CCC3)cc1, the survival was inactive: 100%. In the case of COC(=O)c1ccc(NC(=O)CCc2c(C)nc3c(c(C)nn3C(C)(C)C)c2C)cc1, the survival is reported as inactive: 83%. For O=S(=O)(Nc1ccc(-c2nc3ccccc3o2)cc1)c1ccccc1, the survival was inactive: 94%. Cc1ccc2occ(-c3cc(-c4ccc(F)cc4)nc4c3COc3ccc(F)cc3-4)c(=O)c2c1 was tested, and the survival was inactive: 76%. With CCOc1cc(NS(=O)(=O)c2ccc(OC)cc2)c(OCC)cc1NC(=O)CC the survival was inactive: 97%. In the case of Cc1ccccc1CSc1nc(-c2cccc(F)c2)nc2c1Cc1c(CO)cnc(C)c1O2, the survival is reported as inactive: 85%. In the case of COc1ccc(OC)c(CNC(=O)c2nn(C)c3c2CS(=O)(=O)c2ccccc2-3)c1, the survival is reported as inactive: 81%. With CN(C)C(=O)c1ccc2c(c1)N(CC(=O)NCc1ccccc1Cl)C(=O)C1CCCCN21 (stereo not given) the survival was inactive: 71%. CC1(C)OC2C(CO)OC(n3ncc(=O)[nH]c3=O)C2O1 (stereo not given) was tested, and the survival was inactive: 100%. In the case of COc1ccc(Cn2nnnc2C(c2ccccn2)N2CCc3ccccc3C2)cc1 (stereo not given), the survival is reported as inactive: 94%. For CC(=O)Nc1ccc(Nc2ncnc3c2cnn3C)cc1, the survival was inactive: 78%. For CCOc1ccccc1CNC(=O)c1oc2c(c1C)-c1[nH]ncc1CC2, the survival was inactive: 109%. In the case of CC1CCN(c2ncnc3c2c(-c2ccccc2)cn3-c2ccc(Br)cc2)CC1, the survival is reported as inactive: 72%. With CCCN(CCC)C(=O)Cn1c(=O)n(CCCCCC(=O)NCc2ccc3c(c2)OCO3)c(=O)c2sccc21 the survival was inactive: 90%. In the case of Cc1ccc(C)n1-c1nnc(N2CCCC(C(=O)Nc3ccccc3Br)C2)s1 (stereo not given), the survival is reported as inactive: 117%. In the case of CCOC(=O)c1c(NC(=O)c2cc(OC)c(OC)c(OC)c2)sc2c1CCCC2, the survival is reported as inactive: 89%. O=C(CSc1nnc(-c2ccc(Cl)cc2)o1)c1ccc(Cl)cc1 was tested, and the survival was inactive: 115%. For O=C(CN1C(=O)C2(SCC(=O)N2c2cccc(Cl)c2)c2ccccc21)NCc1ccccc1 (stereo not given), the survival was inactive: 102%. CC(C)(C)c1ccc(OCC(=O)NCC2(N3CCOCC3)CCCCC2)cc1 was tested, and the survival was inactive: 105%. For COc1ccc(NC(=O)CCCn2c(=O)c3cccn3c3cccnc32)cc1Cl, the survival was inactive: 86%. COc1ccc(-c2cn3nc(N4CCC(C(=O)Nc5cc(Cl)ccc5C)CC4)sc3n2)cc1 was tested, and the survival was inactive: 77%. In the case of COc1ccccc1-c1cc2nc(C)c(CCC(=O)NCCc3cccc(C)c3)c(C)n2n1, the survival is reported as inactive: 74%. In the case of Cc1ccc(NC(=O)Cn2cnc3onc(-c4ccc(F)cc4)c3c2=O)c(Cl)c1, the survival is reported as inactive: 105%. With Cc1ccc(NC(=O)c2cc3ccccn3n2)cc1F the survival was inactive: 88%. O=C(CCCCCn1c(=O)c2sccc2n(CC(=O)Nc2cc(C(F)(F)F)ccc2Cl)c1=O)NCc1ccccc1Cl was tested, and the survival was inactive: 74%. CCc1cccc(-n2c(=O)c3cccnc3n2CC(=O)NCc2ccc(C)cc2)c1 was tested, and the survival was inactive: 85%. With C#CCN1CCc2cc(OC)c(OC)cc2C1C (stereo not given) the survival was inactive: 104%. With Cc1cccc(CC(=O)Nc2ccc3nc(N4CCC(C)CC4)cc(C)c3c2)c1 the survival was inactive: 44%. For Cc1ccc(Cl)cc1N1CCN(C(=O)CSc2cc(=O)n(C)c3ccccc23)CC1, the survival was inactive: 64%. For CC1=C(C(=O)Nc2cc(Cl)ccc2C)C(c2sccc2C)n2ncnc2N1 (stereo not given), the survival was inactive: 47%. CC(Oc1ccc(Cl)cc1Cl)C(=O)NNc1nc(Cl)nc(N(C)C)n1 (stereo not given) was tested, and the survival was inactive: 107%. With C=CCn1c(NC(=O)CC)nc2ccccc21 the survival was inactive: 90%. With O=C(Nc1nc2ccc(F)cc2s1)c1nc(S(=O)(=O)Cc2ccccc2F)ncc1Cl the survival was inactive: 87%. Cc1cc(C)c(NC(=O)Cn2c(=O)n(CCC(=O)NCc3ccccc3Cl)c(=O)c3sccc32)c(C)c1 was tested, and the survival was inactive: 104%. With CC(C)(C)c1ccc2c(c1)N(CC(=O)NCCCN1CCN(c3ccccc3F)CC1)C(=O)CO2 the survival was inactive: 81%. Cc1ccc(N)cc1N(C)C was tested, and the survival was inactive: 93%. With O=C(CSc1cn(CCNC(=O)c2cccc(C(F)(F)F)c2)c2ccccc12)Nc1ccc2c(c1)OCCO2 the survival was inactive: 73%. In the case of COc1ccc(C(=O)Nc2ccc3nc(SCC(=O)N(C)c4ccccc4)sc3c2)cc1, the survival is reported as inactive: 113%. In the case of CSc1ncc(C(=O)NCc2ccc(C)cc2)c(C)n1, the survival is reported as inactive: 73%. CC(C)N(C(=O)Cn1cc(S(=O)(=O)Cc2ccc(Br)cc2)c2ccccc21)C(C)C was tested, and the survival was inactive: 80%. For O=C(c1ccc(F)cc1)N1CCC(c2nc3ccccc3s2)CC1, the survival was inactive: 90%. For COc1ccc(NC2=C(c3ccccc3)C(=O)c3ccccc32)cc1Cl, the survival was inactive: 144%. For CC1CCN(S(=O)(=O)c2ccc3c(c2)N(CC(=O)NCCCN2CCCCC2)C(=O)CS3)CC1, the survival was inactive: 75%. With Cc1ccc(CNC(=O)c2cc(-c3ccc(C)cc3)nc3n[nH]c(-c4cccc([N+](=O)[O-])c4)c23)cc1 the survival was inactive: 74%. In the case of Cc1c(C(=O)Nc2ccc(F)c(C(F)(F)F)c2)sc2nc(-c3ccccc3)cn12, the survival is reported as inactive: 119%. For CCOc1ccc(S(=O)(=O)NCCc2c(C)[nH]c3c(Cl)cccc23)cc1C, the survival was inactive: 51%. COc1ccc(CNC(=O)c2ccc3c(c2)N(Cc2c(F)cccc2Cl)C(=O)CS3)cc1 was tested, and the survival was inactive: 136%. With CCOC(=O)CSc1nc2ccc(NC(=O)c3cccc(F)c3)cc2s1 the survival was inactive: 87%. With NC(=O)COc1ccc(/C=N/NC(=O)c2ccc(CN3CCOCC3)cc2)cc1 the survival was inactive: 101%. O=C(CCn1cccn1)Nc1ccc(Br)cc1F was tested, and the survival was inactive: 78%. With Cc1cccc(-c2nc3c4ccccc4nc(NCCc4ccccc4)n3n2)c1 the survival was active: 3%. In the case of CCOc1ccc(NS(=O)(=O)c2ccc3[nH]c4c(c3c2)CCCCC4)cc1, the survival is reported as inactive: 82%. O=S(=O)(NCc1nc2cccnc2n1Cc1ccccc1Cl)c1ccc2c(c1)CCCC2 was tested, and the survival was inactive: 73%. In the case of O=c1c(NCc2cccs2)nccn1-c1ccc(F)cc1, the survival is reported as inactive: 73%. COc1cccc(NC(=O)CN(CCc2ccccc2)S(=O)(=O)c2ccc(Cl)cc2)c1 was tested, and the survival was inactive: 72%. Cc1nc2ccccc2n1CCc1nc2c3ccccc3nc(SCc3ccc(C#N)cc3)n2n1 was tested, and the survival was inactive: 68%. In the case of CCN(CC)CCCNC(=O)Cc1csc2nc(-c3ccc(Cl)cc3)cn12, the survival is reported as inactive: 115%. With CCOc1ccccc1NS(=O)(=O)c1ccc2c(c1)oc(=O)n2C the survival was inactive: 82%. Cc1cc2c(n1-c1ccc(C(=O)NCc3ccccc3Cl)cc1)CCCC2 was tested, and the survival was inactive: 88%. COc1ccccc1NC(=S)N(CCO)Cc1cc2cc3c(cc2[nH]c1=O)OCCO3 was tested, and the survival was inactive: 110%. COc1ccccc1N1CCN(C(=O)c2c(C)oc3ncn(C)c(=O)c23)CC1 was tested, and the survival was inactive: 85%. In the case of O=C(CCSCc1ccccc1Cl)NCc1ccc(F)cc1Cl, the survival is reported as active: 0%. For Cc1cccc(CCNC(=O)c2cc3c(=O)n(C)c4ccccc4c3n2C)c1, the survival was inactive: 69%. With O=C(CN1C(=O)CCn2nc(-c3ccccc3)cc21)NCc1ccc(Cl)cc1 the survival was active: -3%.
